Experimental data as given in patent US5576208A, “Antisense oligonucleotide inhibition of the RAS gene” (priority 1994, dated 1996).

Experimental: Oligonucleotides were incubated in crude HeLa cellular extracts at 37° C. to determine their sensitivity to nuclease degradation as described in Dignam et al., Nucleic Acids Res. 1983, 11, 1475-1489. […] Oligonucleotides with two-, three and four-diester gaps had T 1/2 of approximately 5.5 hours, 3.75 hours, and 3.2 hours, and oligonucleotides with five or ten deoxy linkages had T 1/2 of 1.75 hours and 0.9 hours, respectively.

CsCsAsCsAsCoCoGoAoCoGsGsCsGsCsCsC [compound 4233]
T 1/2: 7 h
